Results taken from PubChem BioAssay AID360 (National Center for Advancing Translational Sciences (NCATS), 2006).
In all, about 48,000 compounds went through this assay and about 550 (1.1%) were called active. Another 4% or so got no clear call; they are omitted. Cut-off read from the data, not from the text of the source: active = potency below about 15 µM; inconclusive = mostly about 16 µM to 33 µM; inactive = weaker than that. Some of the results follow.

Molecular target: Lysosomal acid glucosylceramidase (Homo sapiens) (UniProt P04062)
Assay: Glucocerebrosidase;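 note: the screen sought inhibitors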
Settings: purified enzyme, resorufin glucoside fluorescence (screen aimed at inhibitors), 20 min; series mostly up to 77 µM
How it was run: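 Wild-type enzyme at 0.2 nM final in 50mM citric acid/KH2PO4, 10mM sodium taurocholate, 0.01% tween-20, pH 5.9, with resorufin beta-D-glucopyranoside at 30 uM final. Compounds titrated, 20 min at RT, red fluorescence read; AC50 from titration.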
Potency is the fitted concentration of half-maximal effect.

UniProt P04062, sequence (P04062 whole entry, looked up): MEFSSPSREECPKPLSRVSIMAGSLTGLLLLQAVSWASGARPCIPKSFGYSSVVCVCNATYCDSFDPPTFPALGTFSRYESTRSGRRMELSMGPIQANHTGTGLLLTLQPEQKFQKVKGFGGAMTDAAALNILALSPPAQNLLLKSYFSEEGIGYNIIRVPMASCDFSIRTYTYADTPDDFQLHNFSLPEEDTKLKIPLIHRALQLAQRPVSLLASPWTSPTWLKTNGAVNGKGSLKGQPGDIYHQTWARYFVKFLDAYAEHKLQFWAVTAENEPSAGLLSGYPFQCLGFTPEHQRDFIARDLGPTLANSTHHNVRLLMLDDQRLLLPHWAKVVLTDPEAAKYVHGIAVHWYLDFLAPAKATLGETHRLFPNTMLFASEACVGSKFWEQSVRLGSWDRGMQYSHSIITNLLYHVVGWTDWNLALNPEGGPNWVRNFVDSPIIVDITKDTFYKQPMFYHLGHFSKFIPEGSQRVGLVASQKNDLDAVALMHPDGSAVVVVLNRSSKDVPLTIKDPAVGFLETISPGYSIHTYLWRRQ

Potency, inactive:
COc1cc(C(C(=O)NC(C)(C)C)N(Cc2ccccc2)C(=O)c2cnccn2)cc(OC)c1OC (stereo not drawn) > 76.9 µM
COc1ccc(S(=O)(=O)N2CCOCC2)cc1C(C)C > 76.9 µM
Cc1ccc(Cc2c(C)nc3nc(SCC(=O)NCc4ccco4)nn3c2C)cc1 > 76.9 µM
COc1ccc(NC(=O)N2CCN(c3cccc(C(F)(F)F)c3)CC2)cc1 > 76.9 µM
CCCCN(CCCC)Cc1ccc(N)cc1 > 76.9 µM
NC(=O)c1ccc(-n2nnnc2SCC(=O)Nc2ccc(N3CCOCC3)c(Cl)c2)cc1 > 76.9 µM
Cc1ccc(-c2nn(C)c(=O)c3ccccc23)cc1CO > 76.9 µM
C=CCn1c(SCC(=O)Nc2c(C)cccc2C)nnc1-c1ccncc1 > 76.9 µM
O=C(/C=N/O)NCCCn1ccnc1 > 76.9 µM
O=C(CSc1nnc(Nc2ccccc2)s1)NCc1ccco1 > 76.9 µM
O=C1C2C3C=CC(C3)C2C(=O)N1c1ccc2c(c1)CCC2 (stereo not drawn) > 76.9 µM
O=S(=O)(Nc1ccc(N2CCOCC2)cc1)c1cccs1 > 76.9 µM
CCCCSc1nnc(-c2ccc(C)cc2)o1 > 76.9 µM
Cc1c(C(=O)N2CCN(c3ccc(F)cc3)CC2)sc2nc(-c3ccccc3)cn12 > 76.9 µM
Cc1cccc2c(=O)cc(C)n(CC(=O)N3CCCCC3)c12 > 76.9 µM
Cc1onc(-c2ccccc2Cl)c1C(=O)NCCN1CCOCC1 > 76.9 µM
COc1ccc(C2=NOC(C(=O)NC(C)(C)C)C2)cc1 (stereo not drawn) > 76.9 µM
O=C(NCc1ccco1)c1ccc(CS(=O)(=O)c2cccc(C(F)(F)F)c2)o1 > 76.9 µM
COc1cc(NC(=O)c2ccccc2)c(OC)cc1NC(=O)CN1CCOCC1 > 76.9 µM
Cc1ccc(Cc2c(C)nc3c(C(=O)O)cnn3c2C)cc1 > 76.9 µM
CCCCn1c(=O)[nH]c(=O)c2c1nc(-c1ccncc1)n2CCOC > 76.9 µM
O=c1cnnc(NCc2ccccc2)[nH]1 > 76.9 µM
O=C(O)C1CSC(c2ccncc2)N1 (stereo not drawn) > 76.9 µM
COc1ccc(-c2n[nH]c(C)c2-c2ccc(Cl)cc2)c(O)c1OC > 76.9 µM
O=S(=O)(NCc1cccs1)c1cccc2cccnc12 > 76.9 µM
COc1ccc(C2(CCN)CC(C)N(C)CC2C)cc1 (stereo not drawn) > 76.9 µM
O=C(O)c1coc2ccccc12 > 76.9 µM
O=C1NC2(CCCCC2)N=C1c1ccc(F)cc1 > 76.9 µM
COC(=O)c1ccc(NC(=O)CN2CCN(c3ccccc3)CC2)cc1 > 76.9 µM
Cn1nnnc1SCC(=O)N1CCc2ccccc2C1 > 76.9 µM
O=C(CSc1nccn1Cc1ccccc1)Nc1nccs1 > 76.9 µM
O=C(NCCCO)c1nc2ccccc2s1 > 76.9 µM
CSc1nc2ccccc2n1CC(=O)N1CCCCC1 > 76.9 µM
CCn1cc(C(=O)NC2CCCCCC2)c2cc(OC)c(OC)cc2c1=O > 76.9 µM
CN(C)CCCN1C(=O)c2oc3ccccc3c(=O)c2C1c1cccs1 (stereo not drawn) > 76.9 µM
O=C(c1cnn2c(C(F)F)cc(-c3ccccc3)nc12)N1CCN2CCCC2C1 (stereo not drawn) > 76.9 µM
O=C1CC(c2ccccc2)C(=O)N1c1cccc(O)c1 (stereo not drawn) > 76.9 µM
COc1ccc2cc(C)c(SCC(=O)Nc3cc(C)on3)nc2c1 > 76.9 µM
CC(C)(C)NC(=O)CN(Cc1cccnc1)C(=O)c1csnn1 > 76.9 µM
COc1ccc(OC)c(C2C(C(=O)c3cccs3)=C(O)C(=O)N2c2cc(C)on2)c1 (stereo not drawn) > 76.9 µM
c1cncc(-c2nnc(-c3cccnc3)nn2)c1 > 76.9 µM
Cc1cccc(N2CCN(C(=O)C3CCN(S(=O)(=O)c4cccc5nsnc45)CC3)CC2C)c1 (stereo not drawn) > 76.9 µM
c1ccc(-n2nnnc2-n2nnc3ccccc32)cc1 > 76.9 µM
Cc1c(Cl)cccc1NC(=O)CSCc1cc(=O)[nH][nH]1 > 76.9 µM
CCCCn1c(SCC(=O)c2ccccc2)nc2c1c(=O)[nH]c(=O)n2C > 76.9 µM
COc1ccc(S(=O)(=O)N2CCCC(C(=O)NCc3ccncc3)C2)cc1 (stereo not drawn) > 76.9 µM
CCOC(=O)c1sc(=S)n(-c2cc(OC)ccc2OC)c1N > 76.9 µM
CNC(=O)c1cc2c(s1)CCCCCC2 > 76.9 µM
Cc1ccc2c(c1)cc(C)c1nnc(SCC(=O)NCc3ccco3)n12 > 76.9 µM
CCCOC(=O)Cn1c(=O)c2cc3c(=O)n(CC(=O)OCCC)c(=O)c3cc2c1=O > 76.9 µM
COc1ccccc1C(=O)n1nc(-c2ccccc2)nc1NCc1ccco1 > 76.9 µM
O=C(NCCCN1CCN(Cc2ccccc2)CC1)C1CCN(S(=O)(=O)N2CCCC2)CC1 > 76.9 µM
COc1ccccc1C1SCCN1S(C)(=O)=O (stereo not drawn) > 76.9 µM
Cc1nc2sc3c(c2c2nc(-c4ccco4)nn12)CCCC3 > 76.9 µM
Cc1cccc(C)c1NC(=O)C1CCCNC1 (stereo not drawn) > 76.9 µM
O=C(Nc1sc2c(c1C(=O)NC1CC1)CCCCCC2)c1ccco1 > 76.9 µM
COc1ccc(CCN2C(=O)CC(Nc3ccc(N4CCOCC4)cc3)C2=O)cc1OC (stereo not drawn) > 76.9 µM
CC(=O)Nc1ccc(N/C=C/C(=O)C(C)(C)C)cc1 > 76.9 µM
CC(C)CNC(=O)NC1C(NC(=O)NCC(C)C)N(C)C(=O)N1C (stereo not drawn) > 76.9 µM
CCN1CCc2nc(SCC(=O)Nc3ccc(OC)cc3)c(C#N)cc2C1 > 76.9 µM
CCn1c(SCC(=O)c2ccc(CNC(C)=O)o2)nnc1-c1cccs1 > 76.9 µM
Cc1occc1-c1nnc(SCC(=O)c2ccc(Cl)cc2)n1C > 76.9 µM
O=C1CN(C(=O)c2ccco2)C(c2ccccc2)c2cc(Cl)ccc2N1 (stereo not drawn) > 76.9 µM
Cc1ccc2c(C)c(C(=O)Nc3nnc(C)s3)oc2c1 > 76.9 µM
O=C(c1ccco1)N1CCN(c2ncnc3c(-c4ccccc4)nsc23)CC1 > 76.9 µM
CCCN1C2CCCC1CC(NC(=O)Nc1cccc(C(C)=O)c1)C2 (stereo not drawn) > 76.9 µM
OC(c1cccnc1)c1cccs1 (stereo not drawn) > 76.9 µM
Cc1nc2nc(C)c(CCC(=O)N3CCN(c4ccccn4)CC3)c(C)n2n1 > 76.9 µM
O=C(CN1CCCC1)Nc1ccc(Oc2ccc(NC(=O)CN3CCCC3)cc2)cc1
CCCCOC(=O)Nc1nnc(-c2ccccc2OC)s1 > 76.9 µM
CC1Cn2c(nnc2C23CC4CC(CC(C4)C2)C3)S1 (stereo not drawn) > 76.9 µM
CCN(CC(=O)NCc1ccc(F)cc1)C(=O)C1CCN(C(=O)Nc2ccccc2)CC1 > 76.9 µM
O=C(Cc1ccccc1)Nc1ccc(C(=O)O)cc1 > 76.9 µM
CCCn1c(SCC(=O)N2CCc3ccccc3C2)nc2c1c(=O)n(C)c(=O)n2C > 76.9 µM
O=C1CC(C(=O)Nc2ccccc2)N=C(N2CCOCC2)N1 (stereo not drawn) > 76.9 µM
CC1CN(Cc2cc(=O)n3ccsc3n2)CC(C)O1 (stereo not drawn) > 76.9 µM
CC(=O)Nc1ccc(S(=O)(=O)N2CCN(C34CC5CC(CC(C5)C3)C4)CC2)cc1 > 76.9 µM
CCCN1Cc2cccc(C(N)=O)c2C1=O > 76.9 µM
CS(=O)(=O)N1CCN(c2ccccc2NC(=O)CSc2ccc(Cl)cc2)CC1 > 76.9 µM
CC1=C(C#N)C(NC(=O)C2CC2)(C(F)(F)F)C(=O)N1 (stereo not drawn) > 76.9 µM
CCN(C(=O)c1cc2cc(OC)ccc2oc1=O)c1ccccc1 > 76.9 µM
O=S(NCc1ccccc1)C12CC3CC(CC(C3)C1)C2 (stereo not drawn) > 76.9 µM
CCOc1ccc(OCC)c(NC(=O)CSc2nc3c(c(=O)n(C)c(=O)n3C)n2C(C)C)c1 > 76.9 µM
CCCc1cc2c(=O)c(-c3ccccn3)c(C)oc2cc1O > 76.9 µM
Cc1cc(NC(=O)c2cccc(S(=O)(=O)N3CCCC3)c2)no1 > 76.9 µM
O=C1CC(O)(C(F)F)Oc2ccc3ccccc3c21 (stereo not drawn) > 76.9 µM
Nc1cc(OC(=O)c2ccco2)nn1S(=O)(=O)c1ccc(F)cc1 > 76.9 µM
COc1cc(C)nc(OCCNS(=O)(=O)c2cc(C)ccc2C)n1 > 76.9 µM
Cc1ccc(S(=O)(=O)C(C#N)c2nc3ccccc3nc2N2CC(C)OC(C)C2)cc1C (stereo not drawn) > 76.9 µM
Cn1cccc1C(=O)N1CCN(c2cccc(C(F)(F)F)c2)CC1 > 76.9 µM
CC(C)CCn1c(N2CCN(Cc3ccccc3)CC2)nc2c1c(=O)[nH]c(=O)n2C > 76.9 µM
COc1ccc(NC(=O)c2ccco2)cc1NC(=O)c1cccs1 > 76.9 µM
O=S(=O)(NC1CCCC1)c1ccc(S(=O)(=O)NC2CCCC2)cc1 > 76.9 µM
